Data on 167 variants can be found in the RNAGym collection of RNA variant scans (doi:10.7554/elife.90254).

Sequences and labels used below:
B1: LINE1-mini (parent)
chain: GGCAGAGCUCAACACAGCGUGGCAAAGUGGCUGUGGCUAGACUGCC

The source gives no read counts; variants with many changes may rest on few reads.

The series covers variants of B1. The series is described as follows: self-cleavage, relative activity (ratio to wild type); higher = more cleavage; in vitro, sequencing; the parent is a self-cleaving ribozyme.
For the variant G2C G7A A24C C42U, the self-cleavage was determined as 0.2.
The value for G2C C18A A26C was 0.03; that for G2C C10A A11U C13A A14C C31U C37U C42G was 0.
The value for G2C C15U C18U G36C was 0.03; that for G2C C15U U34A G36A G44U was 0.05; that for G2C C37U G40A G44C was 0.08.
G2C C15U C18U G29A: the self-cleavage was 0.01.
With G2C C15G A39C G44A, the self-cleavage is 0.07.
The value for G2C C10U A24U G36U C42G C45G was 0.01.
The value for G2C G19U A26G was 0.04.
Regarding G2C C8A A11U C18U G27C, the self-cleavage is 0.69.
On to G2C C18A U20G G40A, for which the self-cleavage was found to be 0.
The value for G2C C23A G30C was 0.54; that for G2C C18G G33A U38A was 0.16; that for G2C C8U G22C C31A was 0.03.
The value for G2C C10A C13U was 0.1.
Consider G2C C13A A14G, for which the self-cleavage was 0.21.
With G2C C45G C46U, the self-cleavage turned out to be 0.56.
The value for G2C C8U C13U U28G was 0.13; that for G2C G33C A41C was 0.02; that for G2C C10G A14G C37A was 0.01.
On to G2C U20C G33A G40C C42G, for which the self-cleavage came to 0.02.
The value for G2C C15U A16G was 0.04; that for G2C C10A C13U C42A was 0.
Take G2C G7A C13U U28A U38C A41G C42G: the self-cleavage was 0.25.
The value for G2C G29A U32A U38A was 0.02.
The value for G2C C18A U34A G44C was 0.12; that for G2C G5U C45A was 0.02; that for G2C U28G A41C was 0.02.
The value for G2C G19C A41G G44C was 0.05.
Regarding G2C U9A G21C U38A, the self-cleavage worked out at 0.05.
The value for G2C G19A G30U C45G was 0.25; that for G2C U9A A26C was 0.02; that for G2C G19C U43A was 0.08.
The value for G2C C8G C18A C23A G29U G35U was 0.05; that for G2C C15G A16U A26U was 0.04.
Consider G2C C10U C13A G30U, for which the self-cleavage came out at 0.03.
The value for G2C G17A C18U U43A C45G was 0.04.
The value for G2C G17U G30U U32C was 0.24; that for G2C U9C G22U C45G was 0.07.
The value for G2C C8U A24U was 0.04; that for G2C G29C G30A U34A was 0.33; that for G2C C13G A39G was 0.07.
G2C U9G A16G C18A C42U: the self-cleavage is 0.01.
The value for G2C C8G U9C G29C U32G was 0.04; that for G2C C18G G36U C45A was 0.04.
The value for G2C G7C C10G G17U C31U was 0.03.
The value for G2C G7A C10G C13U A16U C42U U43G was 0.01.
Consider G2C C10A G19U C45A, for which the self-cleavage is 0.01.
Consider G2C C10G G27A U34A, for which the self-cleavage stood at 0.01.
The value for G2C U9C C31G was 0.03.
The value for G2C C10G G29U was 0.04; that for G2C G19A U34G was 0.03; that for G2C U20G G21A was 0.56.
For G2C G5A A6G A11U G30A, the self-cleavage stood at 0.02.
The value for G2C G17A G44C was 0.03; that for G2C C8G C18G U34G was 0.01; that for G2C U20C G36A was 0.13.
Turning to G2C G5A C45A, the self-cleavage came to 0.04.
With G2C U32G U43C, the self-cleavage turned out to be 0.02.
Take G2C U20C A24C G35C: the self-cleavage turned out to be 0.02.
Consider G2C C15G A24U A25U A26C G27A, for which the self-cleavage amounted to 0.01.
The value for G2C G7U C10U G17C U28A G29C was 0.02; that for G2C C23U U28A U34G G35U G36C was 0.09; that for G2C U9A C18A C37A was 0.05.
The value for G2C C10G A14G C46A was 0.
The value for G2C G7C C13U A14C C18A was 0.01; that for G2C G35U C37A was 0.08; that for G2C C13A A24C was 0.
Regarding G2C U9C A12G U20C, the self-cleavage came out at 0.08.
The value for G2C C10A C42G was 0.01; that for G2C G7A C23U A26G G30U U38G was 0.06; that for G2C G19C U28A was 0.05.
For the variant G2C C8G C10A G30A U43A, the self-cleavage came to 0.01.
The value for G2C U20A G30A C46A was 0.15.
In the case of G2C C18U C31U, the self-cleavage was found to be 0.02.
The value for G2C U9G U28A was 0.04; that for G2C G5C C18U A24U C31G was 0.03.
The value for G2C C8G C18U was 0.04; that for G2C C10A G17U C31A G40A was 0.
The value for G2C C15A U28C U32C was 0.03; that for G2C C8U C23A was 0.02; that for G2C C8G G30U C45U was 0.02.
On to G2C C10G C31A, for which the self-cleavage stood at 0.01.
The value for G2C C23G G27U U34A was 0.09; that for G2C C13G G33U U38C was 0.08.
Turning to G2C U32A U43A, the self-cleavage is 0.
For the variant G2C G7A U9A C13U G21A, the self-cleavage is 0.41.
In the case of G2C G40A G44U, the self-cleavage was 0.2.
The value for G2C C15U C31G U34C A39C was 0.02; that for G2C C13A A25U A39U was 0.07; that for G2C G17U G35U was 0.06.
As for G2C G21U C23A, the self-cleavage amounted to 0.19.
In the case of G2C G21U C23U G40C, the self-cleavage came out at 0.12.
The value for G2C C8U G19U was 0.1; that for G2C U20G G21C A24U A26U G27U G40A was 0.01.
The value for G2U A4C G30C was 0.01.
In the case of G2C G7U A24U G36A, the self-cleavage amounted to 0.41.
Take G2C C10U A25G G40A C45G: the self-cleavage stood at 0.02.
The value for G2C G7A C8G A16C A24C U38C was 0.08; that for G2C C15G C23U was 0.
For G2C G19C G30A G40U, the self-cleavage turned out to be 0.05.
On to G2C U9A G36U C42A, for which the self-cleavage was found to be 0.03.
On to G2C G19C G27U, for which the self-cleavage was found to be 0.13.
With G2U A4C C15U G22C C23U, the self-cleavage amounted to 0.08.
The value for G2C G27C U38A was 0.02; that for G2C G30U G40A was 0.06.
In the case of G2C C10A G36C C46G, the self-cleavage is 0.01.
The value for G2C C13G G29U was 0.04.
As for G2C C8G A41C, the self-cleavage came out at 0.
The value for G2C G7C C13U U20A was 0.16.
The value for G2C G44A C45G was 0.09; that for G2C C10U U20A C23U G27U G35C was 0.01; that for G2C G19U G21C G33A U34A U38G A39C was 0.02.
The value for G2C C8A U9A C18A C31G G35C A39C C42G was 0.01; that for G2C G21U G29U G40U was 0.14.
As to G2C C8U G21C C45U, the self-cleavage is 0.12.
The value for G2C G5U C13A C31U was 0.03.
The value for G2C C10A G22A G36A was 0.02.
The value for G2C C18A C46U was 0.07; that for G2C C10A A24G A25G A26C was 0.02.
For the variant G2C C8G G29A U34A C42A, the self-cleavage stood at 0.03.
With G2C U9G G27U, the self-cleavage was 0.03.
As to G2C C10A A16C C23A G29A, the self-cleavage came to 0.01.
The value for G2C C10U G29U U32G was 0.03; that for G2C G5U C18U G33A G40U was 0; that for G2C G5A C15G G17A was 0.03.
As for G2C C23A G33U, the self-cleavage is 0.1.
The value for G2C C8U C13U U20G G36C G44A was 0.13.
With G2C U9C C18G, the self-cleavage worked out at 0.07.
Regarding G2C G7C C18G, the self-cleavage was determined as 0.03.
For the variant G2C C13A C37A C42U, the self-cleavage turned out to be 0.39.
In the case of G2C G30U C31A, the self-cleavage came to 0.11.
Regarding G2C C13G G30C C31U G40A, the self-cleavage came out at 0.
The value for G2C G5C U28A C37U C45U was 0.01; that for G2C C8A C45G was 0.08; that for G2C C37G A39C C42U was 0.04.
Turning to G2C C8G A11C A24C, the self-cleavage was 0.02.
In the case of G2C G19C G30U, the self-cleavage came to 0.06.
The value for G2C C10A A14U was 0.02.
The value for G2C C18G G35C was 0.06.
The value for G2C G7A G33C was 0.27.
With G2C G19U U20G G27A, the self-cleavage stood at 0.1.
The value for G2C G5C C15U G21C G33U C45U was 0.25; that for G2C C10G U20A was 0.01; that for G2C G17U G22U G36C was 0.01.
As for G2C C8U C10U A41U, the self-cleavage came to 0.06.
The value for G2C C15A G21A C23U was 0.01; that for G2C G5A G21A C31A G36A C45A was 0.18; that for G2C C8A A41U was 0.21.
As for G2C G35U C45U, the self-cleavage was found to be 0.03.
For the variant G2C C10A C13A G21C, the self-cleavage stood at 0.01.
Regarding G2C G7A A16U, the self-cleavage is 0.08.
As for G2C C13A A14C A16U U34G C46A, the self-cleavage was found to be 0.13.
For G2C C13G G21C, the self-cleavage is 0.04.
The value for G2C G7C C31U C45A was 0.05; that for G2C U20C G27U C37U U38C was 0.01.
The value for G2C G7C G17A A24C was 0.05.
The value for G2C C10A U20C G22U was 0.
Consider G2C G27C U28A, for which the self-cleavage was 0.09.
The value for G2C C13U C18U G27C was 0.02.
In the case of G2C C31U C37U, the self-cleavage was found to be 0.03.
Turning to G2C G22U A26C G35U, the self-cleavage stood at 0.16.
The value for G2C U20A G33U was 0.06; that for G2C C23A U28G was 0.11; that for G2C G5C C10U C23G C31U C42A was 0.01.
Regarding G2C C15U G35U, the self-cleavage worked out at 0.04.
